In all, about 110,000 compounds went through this assay and about 230 (0.21%) showed an effect of 50% or more. Some of the results follow.
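Further: 30 min substrate incubation versus DMSO and 10 µM JCP410 controls.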

Chain of DPAP1 (Q8IIJ9 whole entry, looked up): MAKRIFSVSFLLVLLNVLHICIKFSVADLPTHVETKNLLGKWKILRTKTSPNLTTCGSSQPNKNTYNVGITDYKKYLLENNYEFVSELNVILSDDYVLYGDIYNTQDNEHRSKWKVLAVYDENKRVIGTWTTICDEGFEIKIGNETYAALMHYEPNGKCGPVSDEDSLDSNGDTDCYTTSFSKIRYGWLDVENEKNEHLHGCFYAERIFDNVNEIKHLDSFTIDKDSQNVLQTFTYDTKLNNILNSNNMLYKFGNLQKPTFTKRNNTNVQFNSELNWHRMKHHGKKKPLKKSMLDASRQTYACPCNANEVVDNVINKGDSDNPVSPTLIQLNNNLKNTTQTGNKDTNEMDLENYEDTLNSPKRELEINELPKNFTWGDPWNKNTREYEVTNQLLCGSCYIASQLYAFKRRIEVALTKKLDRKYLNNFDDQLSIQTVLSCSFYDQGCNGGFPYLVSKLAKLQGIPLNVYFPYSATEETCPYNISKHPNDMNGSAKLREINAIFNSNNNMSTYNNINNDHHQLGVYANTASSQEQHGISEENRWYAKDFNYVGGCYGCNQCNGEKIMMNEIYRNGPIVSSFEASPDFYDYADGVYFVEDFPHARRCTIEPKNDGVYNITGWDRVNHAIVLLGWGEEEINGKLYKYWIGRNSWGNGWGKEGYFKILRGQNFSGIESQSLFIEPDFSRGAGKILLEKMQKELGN

The assay has as its target DPAP1 (Plasmodium falciparum, UniProt Q8IIJ9). The assay can be described thus: primary screen, percent inhibition; read by cleavage of a fluorogenic dipeptide substrate; higher = more effect of the substance. Set-up: species or system P. falciparum D10 trophozoite lysates; single well.
Consider `Cc1ccc(-c2csc(/C(C#N)=C\C=C\c3ccccc3)n2)cc1`, for which the “% Inhibition @ 10 uM” value is on record as -1.22%. Under `CC(C)C[C@H](OC(=O)Nc1ccc(-c2cnc(-c3ccncc3)s2)cc1)C(=O)NCC#N` stands 18.1%. Under `COCc1[nH]nc2c1C(c1cccc(O)c1)C(C#N)=C(N)O2` (stereo not drawn) stands -4.75%. As to `CC(C)(C)Cc1ccc(OCCCC(=O)Nc2ccc(Cl)c(N)c2)c(CC(C)(C)C)c1`, the “% Inhibition @ 10 uM” value is 2.62%.

For the compound `COc1ccc(C2OC3(C(=O)c4ccccc4C3=O)C3C(=O)N(c4ccc(C)cc4)C(=O)C23)cc1OC` (stereo not drawn), the “% Inhibition @ 10 uM” value was -4.69%.

In the case of `CSc1nc(-c2ccccc2)cn1-c1ccccc1F`, the “% Inhibition @ 10 uM” value is recorded as 9.6%. For `COc1ccc(C(NC(=O)COc2ccccc2)c2cc(Cl)c3cccnc3c2O)cc1OC` (stereo not drawn), the “% Inhibition @ 10 uM” value is -6.93%. Then `Nc1c2c(nc3ccn(-c4ccccc4)c(=O)c13)CCCC2`, with -10.4%; and `CC(C)(C)NS(=O)(=O)c1ccc(NC(=O)c2ccco2)cc1`, with 0.13%. Then `O=C(Cc1ccccc1)Nc1cccc(Cl)c1`, with -3.65%. On to `CCC(C(=O)NCCCN1CC(C)CC(C)C1)n1ncn2c(cc3occc32)c1=O` (stereo not drawn), for which the “% Inhibition @ 10 uM” value is listed as -1.81%. Turning to `COc1ccc2c(c1)c1ncn(CCN3CCN(Cc4ccccc4)CC3)c(=O)c1n2C`, the “% Inhibition @ 10 uM” value amounted to 1.64%.

Consider `CC(=O)Nc1ccc(Cl)c(C(N)=O)c1`, for which the “% Inhibition @ 10 uM” value is recorded as -2%.

`COCCCNC(=O)/C(C#N)=C/c1c(Oc2ccc(Cl)c(C)c2)nc2ccccn2c1=O`: the “% Inhibition @ 10 uM” value was -5.11%. Then `CC(C)Cc1c(C#N)c(N)nc(S)c1C#N`, with 78.5%; and `CC1CC2(CCCCC2)NCc2ccccc21` (stereo not drawn), with 4.3%; and `Cc1ccc(C2CC(=O)NC(SCCC(C)C)=C2C#N)cc1` (stereo not drawn), with 5.23%. Turning to `O=C(O)c1ccc(-c2ccc(/C=C3/NC(=O)N(Cc4ccccc4F)C3=O)o2)cc1`, the “% Inhibition @ 10 uM” value was 9.97%.

`Cc1ccc(OCCSc2nc3ccccc3n2CCO)cc1`: the “% Inhibition @ 10 uM” value was 1.27%.

In the case of `COc1ccc(C(=O)c2c(/C=C/N(C)C)oc3ccc(OC)cc23)cc1`, the “% Inhibition @ 10 uM” value is reported as -0.261%.

For the compound `CCCC/N=C(\C)c1sc2ccc(OCC)cc2c1O`, the “% Inhibition @ 10 uM” value is listed as 6.19%.

As for `Cc1c(-c2ccccc2)n(CCO)c2nc3c(c(=O)n(C)c(=O)n3C)n12`, the “% Inhibition @ 10 uM” value was -4.42%. `O=C1NC(=O)C(Cc2ccccc2)(c2ccccc2)N1` (stereo not drawn): the “% Inhibition @ 10 uM” value was found to be 1.83%. Then `CC(CNC(=O)Cn1ncn2c(cc3ccccc32)c1=O)c1ccccc1` (stereo not drawn), with -1.7%; and `CCCN1CCN(C(=O)c2cnn(-c3ccc(C)cc3)c2-n2cccc2)CC1`, with -5.74%.

As for `COc1ccccc1Cn1c(=O)oc2ccc(C)cc21`, the “% Inhibition @ 10 uM” value is -6.37%.

Consider `CCOc1ccc(N2C(=O)CC(N3CCCCC3)C2=O)cc1` (stereo not drawn), for which the “% Inhibition @ 10 uM” value came to 4.76%.

For `O=[N+]([O-])c1cc(Cl)ccc1N1CCN(Cc2ccccc2)CC1`, the “% Inhibition @ 10 uM” value is reported as 1.04%. With `C/C(=C\c1cccc(Cl)c1Cl)C(=O)c1c(C)cc(C)nc1O`, the “% Inhibition @ 10 uM” value was -2.48%.

In the case of `Cc1nn(CC(=O)NC(C)CCc2ccccc2)c(=O)c2cccn12` (stereo not drawn), the “% Inhibition @ 10 uM” value is listed as -2.45%. Regarding `COc1ccc(CCNC(=O)c2cc3c(s2)-c2ccccc2OC3)c(OC)c1`, the “% Inhibition @ 10 uM” value came out at 3.45%. As to `Cc1nc2cc(-c3ccccc3)nn2c(C)c1CC(=O)NCc1ccco1`, the “% Inhibition @ 10 uM” value is -4.24%.

Consider `O=C(O)c1cccc(S(=O)(=O)N2CCN(C(=O)c3ccccc3)CC2)c1`, for which the “% Inhibition @ 10 uM” value is -1.24%.

With `Cc1ccc(N(CC(=O)NC(C)C)S(C)(=O)=O)cc1Cl`, the “% Inhibition @ 10 uM” value is given as -3.25%. As to `COCCN1C(=O)/C(=C\c2ccc(Cl)c(Cl)c2)C(C(=O)OC)=C1C`, the “% Inhibition @ 10 uM” value is on record as 1.72%. Take `CC1CC(C)CN(CCCNC(=O)c2cc3c(-c4ccccc4F)nn(C)c3s2)C1` (stereo not drawn): the “% Inhibition @ 10 uM” value is listed as -5.1%. Then `Cc1cc(O)n2nc(NCc3cccs3)nc2n1`, with -2.4%. Turning to `COc1ccc(C(=O)N2CCN(Cc3ccc(C)cc3)CC2)cc1`, the “% Inhibition @ 10 uM” value is reported as -2.32%. As for `Cc1noc(C)c1CCNC(=O)Nc1cn(CC(C)C)c(=O)c2ccccc12`, the “% Inhibition @ 10 uM” value is -5.94%.

Consider `CCC(C(=O)NC(C)c1ccc2c(c1)OCCO2)n1nc(C)n2c(cc3occc32)c1=O` (stereo not drawn), for which the “% Inhibition @ 10 uM” value is on record as -2%. For `CCOC(=O)C1=C(CN2CCC3(CC2)OCCO3)NC(=O)NC1c1ccc(OC(C)C)cc1` (stereo not drawn), the “% Inhibition @ 10 uM” value was found to be 2.39%. Consider `c1ccc(-c2nnc3n2C2(CCCCC2)Cc2ccccc2-3)cc1`, for which the “% Inhibition @ 10 uM” value was -1.99%.

Take `Cn1c(=O)nc(-c2ccccc2)c2cc(Cl)ccc21`: the “% Inhibition @ 10 uM” value stood at 6.54%. Take `COc1ccc(OC)c(CCNCc2c(C(=O)O)c(C)n(Cc3cc(C)ccc3C)c2C)c1`: the “% Inhibition @ 10 uM” value is listed as 2.99%. Then `CC(=O)c1ccc(-c2ccc(/C=c3\sc4nc(=O)c(C)nn4c3=O)o2)cc1`, with 1.91%; and `COc1ccc(C2CC(=O)NC3=C2C(=O)CC(C)(C)C3)cc1Cl` (stereo not drawn), with 3.5%. As for `Cc1ccc(N[C@H]2CS(=O)(=O)C[C@H]2O)cc1`, the “% Inhibition @ 10 uM” value was -4.06%.

On to `CC(C)CC(NC(=O)C(CC(C)C)NC(=O)OC(C)(C)C)C(=O)O` (stereo not drawn), for which the “% Inhibition @ 10 uM” value is -7.46%. Regarding `COc1ccc2nc3c(O)n(Cc4ccc(Cl)cc4)cnc-3c2c1`, the “% Inhibition @ 10 uM” value was 4.8%. Then `CCOc1ccccc1-c1nn2c(-c3ccncc3)nnc2s1`, with -0.45%; and `Cc1ccc(-c2ccc(C=C3C(=O)NC(=O)NC3=O)o2)cc1`, with 6.42%. Then `O=C(c1ccc([N+](=O)[O-])cc1)N1CCSC1c1ccc(Cl)cc1` (stereo not drawn), with 0.162%. Under `O=C(CCS(=O)(=O)c1ccc(Br)s1)NCc1ccc2c(c1)OCO2` stands -4.07%. In the case of `COc1cc(/C=C2\N=C(c3c(-c4ccccc4)noc3C)OC2=O)cc(OC)c1OC`, the “% Inhibition @ 10 uM” value is on record as 4.35%. Then `Cc1cc(C)cc(C(=O)NCCn2ccc3ccccc32)c1`, with -1.62%. Under `NC(=O)c1cccnc1Sc1nc2ccccc2s1` stands 1.08%; under `Cc1ccc(S(=O)(=O)c2cc3c(=O)n4ccccc4nc3n(CCc3ccccc3)c2=N)cc1`, -3.33%.

Consider `Clc1ccccc1-c1nn2c(-c3ccncc3)nnc2s1`, for which the “% Inhibition @ 10 uM” value is reported as 4.47%.

Take `CSc1cccc(NC(=O)c2ccc(Cl)cc2)c1`: the “% Inhibition @ 10 uM” value is recorded as -0.68%. In the case of `Cc1ccc2c(c1)C1CN(C)CCC1N2C(=O)c1ccc(Cn2cc(Br)cn2)o1` (stereo not drawn), the “% Inhibition @ 10 uM” value turned out to be 3.53%.

As to `CCOC(=O)N1CCN(C(=O)c2cc(-c3ccc(OC)cc3)[nH]n2)CC1`, the “% Inhibition @ 10 uM” value is reported as -3.53%. Under `CC(C)CCNC(=O)C1CC(=O)N(CCc2ccccc2)C1` (stereo not drawn) stands 1.62%. Under `Brc1ccc(CSc2n[nH]c3nc4ccccc4n23)cc1` stands 1.23%; under `CC1CCCCN1C(=O)c1cc(-c2ccc3c(c2)OCO3)on1` (stereo not drawn), -4.43%; under `Cc1ccc(C2=NS(=O)(=O)N(C)C(C(=O)Nc3sc4c(c3C#N)CCC4)=C2)cc1`, 0.655%. Under `COc1ccccc1/C=C/C(=O)NCC(=O)N1CCC(N(C)C2CCCCC2C)CC1` (stereo not drawn) stands -2.85%; under `O=C1c2ccccc2-c2nc3cc4[nH]c(O)nc4cc3nc21`, -6.3%. For `Cc1ccnc(NC(=O)CCC2COc3ccccc3O2)c1` (stereo not drawn), the “% Inhibition @ 10 uM” value is listed as -1.72%. In the case of `CC(C)(CO)NCc1ccccc1OCc1ccccc1`, the “% Inhibition @ 10 uM” value is given as 0.361%. On to `CC12C(=O)N(c3cccc(Cl)c3)C(=O)C1C1C=CC2C1` (stereo not drawn), for which the “% Inhibition @ 10 uM” value was -9.25%. For the compound `CCN(CC)CCNS(=O)(=O)c1ccc2ncc(C(=O)O)c(O)c2c1`, the “% Inhibition @ 10 uM” value is -0.601%.

For `COc1ccccc1Nc1cc(C)nc2c(C)c(C)cc(N)c12`, the “% Inhibition @ 10 uM” value is -16.1%. Take `CC1=C(C(=O)NCCCOC(C)C)C2(CCC(C)CC2)OC1=O` (stereo not drawn): the “% Inhibition @ 10 uM” value is listed as -3.7%.

Turning to `CC(=O)Nc1ccc(Nc2nc(-c3sc(C)nc3C)cs2)cc1`, the “% Inhibition @ 10 uM” value is given as -10.3%. Then `CCC(C)NC(=O)Cn1c(-c2cccs2)cc2ccccc21` (stereo not drawn), with 10.5%; and `Brc1ccc(-c2cc(-c3ccccc3)nc(N3CCOCC3)n2)cc1`, with 4.42%.

Take `Cc1c(C(=O)NCCc2c[nH]c3ccccc23)sc2nc3n(c(=O)c12)CCCCC3`: the “% Inhibition @ 10 uM” value stood at 0.372%. Regarding `CC(C)NC(=O)C1CCN(C(=O)c2ccc(-c3ccccc3)cc2)CC1`, the “% Inhibition @ 10 uM” value was -3.78%.

Consider `CN(C)CCC/N=C1\C=C(O)OC12CCCCC2`, for which the “% Inhibition @ 10 uM” value is given as -4.93%. Consider `COCCn1c2c(c(=O)[nH]c1=O)C(c1cccc(Cl)c1Cl)C1=C(O)c3ccccc3C1=N2` (stereo not drawn), for which the “% Inhibition @ 10 uM” value is on record as 17.8%.

`CCOc1c(N2CCCCC2)c(=O)c1=O`: the “% Inhibition @ 10 uM” value is on record as -2.17%. Regarding `COc1ccc2nc(O)c(-c3noc(-c4ccccc4Br)n3)cc2c1`, the “% Inhibition @ 10 uM” value is reported as -7.33%. In the case of `O=C(NCc1ccncc1)Nc1cccc(Cl)c1`, the “% Inhibition @ 10 uM” value is reported as -2.76%. Under `CC(C)(C)c1[nH]nc2c1C(c1ccco1)C(C#N)=C(N)O2` (stereo not drawn) stands -2.46%.

Regarding `CC(C)NC(=O)C(C#N)=C(SCc1ccccc1)SCc1ccccc1`, the “% Inhibition @ 10 uM” value worked out at 0.0592%. On to `CCN(CC)CCCOc1cc(Cl)ccc1Cl`, for which the “% Inhibition @ 10 uM” value is on record as -4.8%.

For the compound `O=C(Nc1ccc2oc(-c3cccc(F)c3)nc2c1)c1cccs1`, the “% Inhibition @ 10 uM” value came out at 1.8%. For the compound `NC(=O)C1(N2CCCCC2)CCN(C(=O)NC2CCCCC2)CC1`, the “% Inhibition @ 10 uM” value is -2.28%. As for `O=S(=O)(Nc1nc2c(Cl)cccc2s1)c1ccccc1`, the “% Inhibition @ 10 uM” value is -0.446%. Take `CC1(C)CC2=Nc3ccccc3N(C(=O)Cc3ccccc3)C(c3ccc(F)cc3)C2=C(O)C1` (stereo not drawn): the “% Inhibition @ 10 uM” value is listed as 3.61%. Consider `O=C(C1CC1)N1CCN(C(c2ccccc2)c2ccccc2)CC1`, for which the “% Inhibition @ 10 uM” value is on record as -5.59%. Turning to `Cc1ccc(Cn2ccn(CC(N)=O)c(=O)c2=O)cc1`, the “% Inhibition @ 10 uM” value was 0.943%.

For `Cc1ccc(C(=O)O/N=C(\N)c2ccncc2)cc1`, the “% Inhibition @ 10 uM” value is on record as 2.17%. Then `O=C1N/C(=C/c2ccc(O)cc2)C(=O)N1c1ccc(Cl)cc1`, with -17.7%. Then `CCOc1cc(C=O)ccc1OCc1c(F)cccc1Cl`, with 4.86%; and `CCCN(CCO)Cc1ccccc1F`, with -2.34%.

Take `CC(=O)NS(=O)(=O)c1cccnc1Nc1ccc(Cl)c(Cl)c1`: the “% Inhibition @ 10 uM” value was 0.245%.

For the compound `CC1(C)CC(=O)C2=C(C1)NC(=O)CC2c1cccc2ccccc12` (stereo not drawn), the “% Inhibition @ 10 uM” value is given as -1%. Under `Cc1ccc(CNC(=O)CN2CC(c3ccccc3)CC2=O)cc1` (stereo not drawn) stands 5.1%; under `COCCCNC(=O)Cn1ncn2c(cc3sccc32)c1=O`, 4.95%.

In the case of `CC(=O)c1cc2c(cc1NC(=O)CC(C)C)OCO2`, the “% Inhibition @ 10 uM” value amounted to 0.907%.

As for `C=Cc1ccc(CSc2nc3cccnc3[nH]2)cc1`, the “% Inhibition @ 10 uM” value was 0.174%.

For the origin of these results see article PMC6919601, “Identification of Plasmodium dipeptidyl aminopeptidase allosteric inhibitors by high throughput screening” (PLoS ONE, 2019).
